# Among all 2,300 compounds or so, about 95 (4%) were called active. The inconclusive results got no clear call from the source; some entries with a clear call stand among them for comparison. Calls come from the whole dose curve; as a rule, active = well fitted activation curve with a large enough effect; inconclusive = small, poorly fitted or top-dose-only effect; inactive = flat fitted curve, though single readings scatter. Potencies of inconclusive entries are doubtful fits and often do not repeat.
# Molecular target: D(3) dopamine receptor (Homo sapiens) (UniProt P35462)
# Assay: qHTS of D3 Dopamine Receptor Agonist: D3 Dopamine Receptor B-arrestin Agonist Confirmatory Assay; note: nearly all actives have a fitted effect of over 70% in size;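 for activation: 100% = dopamine control response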
# Details: DiscoveRx D3 beta-arrestin cells, luminescence, 90 min; activation: at 76.9 µM (top of the series)
# Summary of the method: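 Agonist mode: luminescence was read after DiscoveRx reagent had acted for 30–60 min at room temperature. Before that, D3 β-arrestin reporter cells plated overnight at 1500/well received pin-transferred compound (23 nl) or dopamine control and were incubated 90 min at 37 °C.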
# Potency is the fitted concentration of half-maximal effect; tags give direction and shape of the fitted curve.
# Sequence of UniProt P35462 (P35462 whole entry, looked up): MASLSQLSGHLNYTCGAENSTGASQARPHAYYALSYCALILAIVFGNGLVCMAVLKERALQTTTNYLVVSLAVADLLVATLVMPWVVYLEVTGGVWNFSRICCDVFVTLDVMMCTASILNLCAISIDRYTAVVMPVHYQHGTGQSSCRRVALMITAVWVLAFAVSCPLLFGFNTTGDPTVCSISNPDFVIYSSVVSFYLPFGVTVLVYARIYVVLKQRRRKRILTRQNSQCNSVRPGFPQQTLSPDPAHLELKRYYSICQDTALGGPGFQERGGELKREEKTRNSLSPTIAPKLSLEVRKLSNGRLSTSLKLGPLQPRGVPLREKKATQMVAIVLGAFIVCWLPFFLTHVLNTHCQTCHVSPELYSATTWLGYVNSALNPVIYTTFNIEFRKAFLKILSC
SMILES,activation,Potency
COc1cccc(NC(=O)CN(C)C(=O)Cc2ccc3c(c2)OCCO3)c1,inactive: -1.41%,
COc1cc(NC(=O)CCN2CCN(c3ccccc3F)CC2)cc(OC)c1,,"inconclusive: 0.199 µM [activator, full curve]"
O=C(NC(=S)Nc1ccc(CN2CCOCC2)cc1)c1ccccc1[N+](=O)[O-],inactive: -20.9%,
N#Cc1ccc(S(=O)(=O)N2CCC(C(=O)N3CCN(Cc4ccc5c(c4)OCO5)CC3)CC2)cc1,inactive: 2.13%,
CCOC(=O)N1CCc2c(sc(N)c2C#N)C1,,"inconclusive: 10 µM [activator, full curve]"
COC(=O)C1CCN(CCCOc2ccc(CN3CCN(c4ccc([N+](=O)[O-])cc4)CC3)cc2)CC1,,"inconclusive: 0.282 µM [activator, full curve]"
CCCN(CCC)CCCNC(=O)CC(C(=O)N1CCc2ccccc21)n1ccnc1 (configuration not stated),inactive: -16.7%,
C/C(Cn1cnc([N+](=O)[O-])n1)=N\NC(=O)c1ccc(O)cc1O,,"inconclusive: 28.2 µM [activator, single point]"
CN(C)S(=O)(=O)c1cccc(NC(=O)CSc2ncnc3ccccc23)c1,,"inconclusive: 20 µM [activator, partial curve]"
Cc1csc(NC(=O)c2cnc3ccccc3n2)n1,inactive: -15.6%,
Cc1onc(-c2c(Cl)cccc2Cl)c1C(=O)N1CCc2ccccc2C1,inactive: -2.37%,
OC(CSc1c(Cl)cccc1Cl)CN1CCN(c2ccccc2F)CC1 (configuration not stated),,"inconclusive: 0.447 µM [activator, full curve]"
CCCCN(CC)CCNC(=O)c1cc2c(-c3ccc(Cl)cc3)nn(C)c2s1,,"inconclusive: 50.1 µM [activator, partial curve, poor fit]"
O=c1cc(CN2CCN(c3ccccn3)CC2)nc2sccn12,inactive: 10.3%,
CCOC(=O)C1CCN(Cc2cccc(Oc3ccc(Cl)cc3)c2)CC1,,"inconclusive: 5.62 µM [activator, full curve, poor fit]"
NC[C@@H]1O[C@H](C23CC4CC(CC(C4)C2)C3)Cc2c1ccc(O)c2O,,active: 31.6 µM
Clc1ccc(CN2CCN(c3ncccn3)CC2)cc1,,"inconclusive: 0.708 µM [activator, full curve]"
CC1CC(C)CN(CCOc2cccc(Cl)c2Cl)C1 (configuration not stated),,"inconclusive: 0.199 µM [activator, full curve, poor fit]"
CC(C)CCN1CCN(Cc2cn[nH]c2C2CCCCC2)CC1CCO (configuration not stated),inactive: -8.42%,
Cc1cc(Cn2nc(-c3ccccc3C)cc2C(=O)O)on1,inactive: -7.51%,
O=C(NCCN1CCN(c2cccc(Cl)c2)CC1)c1ccc(CSc2nc3ccncc3[nH]2)cc1,,active: 22.4 µM
O=C1C2CCCN2C(=O)N1CCCCN1CCN(c2ccccc2)CC1 (configuration not stated),,"inconclusive: 0.398 µM [activator, full curve, poor fit]"
COc1ccc2ccccc2c1CN1CCN(C(=O)c2ccco2)CC1,,"inconclusive: 4.47 µM [activator, full curve]"
CC(=O)c1ccc(OCC(O)CN2CCN(c3ccccn3)CC2)cc1 (configuration not stated),,"inconclusive: 1.12 µM [activator, full curve]"

SMILES,activation,Potency
O=C(c1ccco1)N1CCN(CC2CC3C=CC2C3)CC1 (configuration not stated),,"inconclusive: 1.12 µM [activator, full curve]"
Cc1cc(-c2ccc(C)c(S(=O)(=O)NCCCN3CCN(c4ccccc4)CC3)c2)on1,,"inconclusive: 35.5 µM [activator, partial curve]"
O=C(c1cc2ccccc2o1)N1CCN(CCOc2ccccc2)CC1,,active: 0.199 µM
CN(CCOc1ccc(Cl)cc1)Cc1cccc(S(=O)(=O)N(C)C)c1,,active: 7.08 µM
CN(C)S(=O)(=O)c1ccc(NC(=O)/C=C/c2ccccc2Cl)cc1,,"inconclusive: 31.6 µM [activator, full curve]"
CCCN(CCC)CCNC(=O)CCC(=O)Nc1ccc2nc(N3CCN(C)CC3)cc(C)c2c1,inactive: 14.1%,
O=[N+]([O-])c1ccc(CN2CCN(c3ncccn3)CC2)cc1,,"inconclusive: 1.12 µM [activator, full curve]"
CN(CC(=O)NCCN1CCN(c2ccccc2)CC1)S(=O)(=O)c1ccc2c(c1)CCC(=O)N2,,"inconclusive: 0.447 µM [activator, full curve]"
O=C(CCN1CCCC1Cc1ccccc1)c1ccc2c(c1)OCCO2 (configuration not stated),,"inconclusive: 0.562 µM [activator, full curve, poor fit]"
Cn1cc(C(F)(F)F)nc1-c1ccc(OCC(O)CNCCOc2ccc(O)c(C(N)=O)c2)cc1 (configuration not stated),,"inconclusive: 0.1 µM [activator, full curve, poor fit]"
Cn1c(CCN2CCN(c3ccccn3)CC2)nc2cc(NS(=O)(=O)c3ccccc3)ccc21,,"inconclusive: 12.6 µM [activator, full curve]"
Cc1[nH]nc2c1C(c1cccs1)C1=C(CC(C)(C)CC1=O)N2 (configuration not stated),inactive: -1.21%,
O=C(c1cccs1)N1CCN(Cc2cn[nH]c2-c2ccc(F)cc2F)CC1,,"inconclusive: 31.6 µM [activator, partial curve]"
CC(C(=O)Nc1ccc([N+](=O)[O-])cc1)N1CCN(C/C=C/c2ccccc2)CC1 (configuration not stated),,"inconclusive: 0.562 µM [activator, full curve]"
CN(C)c1ccc(NC(=O)C(=O)NCCOc2ccccc2)cc1,,"inconclusive: 22.4 µM [activator, partial curve]"
Clc1ccc(CN2CCN(c3ncccn3)CC2)c(Cl)c1,,"inconclusive: 20 µM [activator, full curve]"
Cc1ccc2c(c1)[nH]c1c(=O)n(Cc3ccco3)cnc12,inactive: 1.4%,
O=C1c2cccc3cccc(c23)N1CN1CCN(c2ccccn2)CC1,inactive: 16.7%,
COc1ccc(/C=N/NC(=O)c2nnn(-c3nonc3N)c2-c2cccc(OC)c2)cc1,inactive: 7.7%,
COc1ccc(C(=O)CCN2CCN(c3ccccc3F)CC2)cc1,inactive: 3.81%,
O=C(COc1ccc2oc(-c3ccccc3)cc(=O)c2c1)Nc1ccccc1,inactive: 12.6%,
CC(C)C(=O)Nc1ccc2c(c1)nc(CCN1CCN(c3ccccn3)CC1)n2C,,"inconclusive: 1 µM [activator, full curve]"
O=C(CSc1ncn[nH]1)N1N=C2/C(=C/c3ccccc3)CCCC2C1c1ccccc1 (configuration not stated),inactive: 6.31%,

# Reference: PubChem BioAssay AID720506 (National Center for Advancing Translational Sciences (NCATS), 2013)
